In PubChem BioAssay AID504832 (National Center for Advancing Translational Sciences (NCATS), 2011):
In all, about 310,000 compounds went through this assay and about 18,000 (5.8%) were called active. The shares of active, inactive and inconclusive entries below differ from those in the screen. Calls follow the shape of the dose curve; as a rule, active = well fitted inhibition curve with a large enough effect; inconclusive = small, poorly fitted or top-dose-only effect, or another doubt; inactive = no such curve, though single readings can be large or run the other way. Potencies of inconclusive entries are left out as doubtful fits.
Potency is read from the fitted curve at half-maximal effect; tags tell the direction and shape of the fitted curve.

Test: Primary qHTS for delayed death inhibitors of the malarial parasite plastid, 48 hour incubation
Conditions: P. falciparum luciferase growth in erythrocytes; series mostly up to 28.7 µM
Method in brief: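 Here the parasites carry a stable luciferase gene and grow inside erythrocytes in Albumax-based RPMI medium with compound for one erythrocytic cycle. Activity is scored as loss of luminescent signal.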
With `NC(=O)c1cc(S(=O)(=O)NCCCc2ccccc2)cs1` the Potency was inconclusive [inhibitor, partial curve, poor fit]. In the case of `CN(C)S(=O)(=O)c1ccc2c(c1)Cc1cc(S(=O)(=O)N(C)C)ccc1-2`, the Potency is reported as “inactive”. For `COc1cccc(CNC(=O)CNC(=O)c2cccs2)c1`, the Potency was “inactive”. For `CCOC(=O)C1CCN(Cc2c(O)ccc3ccccc23)CC1`, the Potency was inconclusive [inhibitor, single point]. For `NC(=O)c1ccsc1NC(=O)c1coc2ccccc2c1=O`, the Potency was “inactive”. With `NC(=O)C1CC(=O)N(c2ccc(OCc3ccc(Cl)cc3Cl)cc2)C1` (stereo not given) the Potency was “inactive”. In the case of `CC1(C)CC(Nc2ccc(C(F)(F)F)cc2[N+](=O)[O-])CC(C)(C)N1`, the Potency is reported as inconclusive [inhibitor, single point]. In the case of `Cc1ccc(C)c(-c2nnc(NC(=O)C3=COCCO3)o2)c1`, the Potency is reported as “inactive”. With `CN(C)CCN(Cc1cc2cc3c(cc2nc1Cl)OCO3)C(=O)c1ccco1` the Potency was “inactive”. For `CCc1cccc(NC(=O)CCCSc2nc3ccccc3[nH]2)c1`, the Potency was “inactive”. With `CC1(C)Cc2cccc(OCC(=O)OCC(=O)c3ccccc3)c2O1` the Potency was “inactive”. With `CCCN1C(=O)c2ccc(C(=O)Nc3nccs3)cc2C1=O` the Potency was “inactive”. In the case of `CC(C)CCN1CCN(Cc2cccc3cccnc23)CC1CCO` (stereo not given), the Potency is reported as “inactive”. With `COc1ccc(NC(=O)c2ccccc2NC(=O)COc2ccccc2)cc1` the Potency was “inactive”. For `CCOC(=O)CC1=CC(C)(CC(=O)OCC)C(C#N)(C#N)C(N)=C1C#N` (stereo not given), the Potency was “inactive”. For `COc1ccc(CN(C)CC(=O)Nc2ccc(Cl)cc2C(F)(F)F)c(OC)c1`, the Potency was “inactive”. For `CN(Cc1ccccc1F)C(=O)CN1C(=O)NC2(CCc3ccccc32)C1=O` (stereo not given), the Potency was inconclusive [inhibitor, single point]. With `CC(NC(=O)c1cccs1)C1CCCO1` (stereo not given) the Potency was “inactive”. For `Fc1ccccc1C(c1nnnn1Cc1ccc2c(c1)OCO2)N1CCN(Cc2ccccc2)CC1` (stereo not given), the Potency was active: 6.57 µM. For `CCOc1cc(/C=N/Nc2nc(N3CCCC3)nc(N3CCCC3)n2)ccc1O`, the Potency was inconclusive [inhibitor, single point]. For `Cc1ccc(OCC(=O)Nc2ccccc2C(=O)NC2CC2)cc1`, the Potency was inconclusive [inhibitor, single point]. For `O=C(CCCCCn1c(=S)[nH]c2cc3c(cc2c1=O)OCO3)N1CCN(c2ccc(F)cc2)CC1`, the Potency was inconclusive [inhibitor, single point]. For `CSc1nc(Sc2cccc(Cl)c2)c2ccccc2n1`, the Potency was inconclusive [inhibitor, partial curve, poor fit]. With `COc1ccc(C(=O)Nc2nnc(SCC(=O)NC3CCCC3)s2)c(OC)c1` the Potency was “inactive”. For `Cc1ccc(CC2SC(N)=NC2=O)cc1` (stereo not given), the Potency was “inactive”. For `COc1ccc(NC(=O)CN(C)C(=O)c2cn(-c3ccccc3)nc2-c2cccnc2)cc1`, the Potency was active: 8.28 µM. For `CSCCNCc1cn(-c2ccc(F)cc2F)nc1-c1ccccc1C`, the Potency was inconclusive [inhibitor, single point]. In the case of `COCCNC(=O)c1ccc(C2SCC(=O)N2Cc2ccco2)cc1` (stereo not given), the Potency is reported as “inactive”. For `CCOc1ccc(S(=O)(=O)N(CC)CC)cc1N`, the Potency was “inactive”. For `CCC(CC)C(=O)N=C1SC2CS(=O)(=O)CC2N1CCc1ccc(OC)cc1` (stereo not given), the Potency was inconclusive [inhibitor, single point]. In the case of `Cc1ccc(-c2[nH]nc(N)c2N=Nc2ccccc2C)cc1`, the Potency is reported as inconclusive [inhibitor, full curve, poor fit]. For `Cc1sc2nc(SCC(=O)NCc3ccco3)n(Cc3ccccc3)c(=O)c2c1C`, the Potency was active: 10.4 µM. With `CC1CCN(Cc2cc(=O)oc3cc4c(cc23)CCCC4)CC1` the Potency was inconclusive [inhibitor, partial curve]. In the case of `CCOc1ccc(S(=O)(=O)N2Cc3ccccc3CC2C(=O)NCCCn2ccnc2)cc1` (stereo not given), the Potency is reported as inconclusive [inhibitor, single point]. In the case of `O=[N+]([O-])c1ccc(NCc2ccccc2)nc1`, the Potency is reported as “inactive”. In the case of `CC(=O)c1c(C)[nH]c(C(=O)OCC(=O)c2c(N)n(CC(C)C)c(=O)n(C)c2=O)c1C`, the Potency is reported as inconclusive [inhibitor, single point]. With `COC(=O)N/N=C/c1cn(Cc2c(Cl)cccc2Cl)c2ccccc12` the Potency was inconclusive [inhibitor, single point]. With `O=c1c2ccccc2nc(/C=C/c2ccc(O)cc2)n1-c1ccc(O)cc1` the Potency was inconclusive [inhibitor, single point]. For `COC(=O)c1cc(OC)c(OC)cc1NC(=O)c1cccc(OC)c1OC`, the Potency was inconclusive [inhibitor, single point]. For `O=C(Nc1cc(Cl)ccc1O)C1CC(c2c(F)cccc2Cl)=NO1` (stereo not given), the Potency was inconclusive [inhibitor, single point]. In the case of `COc1ccc(/C=N\NC(=O)c2ccccc2)cc1COc1ccc(F)cc1`, the Potency is reported as inconclusive [inhibitor, partial curve]. In the case of `Cc1ccc(NC(=O)c2ccc(=O)n(CC(=O)Nc3c(C)cc(C)cc3C)n2)cc1`, the Potency is reported as inconclusive [inhibitor, partial curve, poor fit]. With `COc1cccc(C(c2nnnn2Cc2ccco2)N2CCN(c3cccc(C)c3C)CC2)c1OC` (stereo not given) the Potency was active: 9.28 µM. In the case of `COc1ccc(F)c(CN2CCCC(CO)(Cc3cccc(Cl)c3)C2)c1` (stereo not given), the Potency is reported as “inactive”. For `CCOc1nc(-c2ccc(C)cc2)ccc1-c1noc(COC)n1`, the Potency was inconclusive [inhibitor, partial curve, poor fit]. With `S=C(NCCN1CCOCC1)N/N=C/c1cccs1` the Potency was active: 3.29 µM. With `Cc1cc(C)cc(NS(=O)(=O)c2ccc(-c3cnc(C4CC4)o3)cc2)c1` the Potency was inconclusive [inhibitor, single point]. With `CCCCOc1ccc(C(=O)NCC(=O)NC(C)CCc2ccccc2)cc1` (stereo not given) the Potency was inconclusive [inhibitor, partial curve, poor fit]. In the case of `CC(C)CCn1c(=O)c2ccccc2n2c(CCC(=O)NC3CCN(Cc4ccccc4)CC3)nnc12`, the Potency is reported as inconclusive [inhibitor, partial curve]. For `CCOc1ccccc1-n1c(SCC(=O)N2CCCc3ccccc32)nnc1-c1cccnc1`, the Potency was inconclusive [inhibitor, single point]. With `COc1cc2c(cc1NCc1ccccn1)oc1ccccc12` the Potency was “inactive”. In the case of `Cc1ccc(C)c(S(=O)(=O)N2CCN(C(=O)c3ccc(N4CCCC4)c([N+](=O)[O-])c3)CC2)c1`, the Potency is reported as inconclusive [inhibitor, partial curve]. For `COC(=O)CCC(=O)OC1(C)C(=O)C=C2C=C(C3CC3)N(C3CCCC3)C=C2C1=O` (stereo not given), the Potency was inconclusive [inhibitor, partial curve]. For `O=C(COC(=O)C1CCN(c2ccc(C(F)(F)F)cn2)CC1)c1ccccc1Cl`, the Potency was inconclusive [inhibitor, single point]. For `C=CCOc1c(Br)cc(CNc2ccc(NC(=O)C(C)C)c(OC)c2)cc1OCC`, the Potency was active: 9.28 µM. In the case of `CCOC(=O)/C=C1\SCC(=O)N1Cc1ccc(Br)cc1`, the Potency is reported as inconclusive [inhibitor, partial curve, poor fit]. With `CC(C)CC(NC(=O)C(CO)NC(=O)C1CCC(=O)N1)C(N)=O` (stereo not given) the Potency was “inactive”. For `O=C1CCc2ccc(OCCCCN3CCN(c4cccc(Cl)c4Cl)CC3)cc2N1`, the Potency was inconclusive [inhibitor, single point]. With `Cc1cc(C)c2[nH]c(O)c(N=NC(=S)NCC3CCCO3)c2c1` (stereo not given) the Potency was inconclusive [inhibitor, partial curve, poor fit]. For `CCOC(=O)CSc1nc(N)cc(=O)[nH]1`, the Potency was “inactive”. In the case of `CCOc1ccc2nc(SCC(=O)Nc3ccc(S(=O)(=O)N4CCCC4)cc3)c(C)cc2c1`, the Potency is reported as inconclusive [inhibitor, partial curve]. In the case of `O=C(Nc1ccccc1F)c1ccc(S(=O)(=O)N2CCCCCC2)cc1`, the Potency is reported as inconclusive [inhibitor, single point]. With `Cc1ccc(S(=O)(=O)N2CCN(S(C)(=O)=O)C2)cc1` the Potency was “inactive”. For `COc1cc(/C=C2\COC/C(=C\c3ccc(O)c(OC)c3)C2=O)ccc1O`, the Potency was active: 10.4 µM. In the case of `CCCCn1nnc(NC(=O)CC23CC4CC(CC(C4)C2)C3)n1`, the Potency is reported as inconclusive [inhibitor, partial curve]. With `CCOC(=O)CSc1nnc(NC(=O)c2cccc(S(=O)(=O)N3CCCCCC3)c2)s1` the Potency was “inactive”. For `CC(OC(=O)c1ccc(-c2ccc(O)cc2)cc1)C(=O)NC1CCCCC1C` (stereo not given), the Potency was “inactive”. In the case of `O=C(O)c1cccc(NC(=O)c2cn(-c3ccccc3)nc2-c2ccc(F)cc2)c1`, the Potency is reported as “inactive”. For `COc1ccc(NC(=O)CN(C)C(=O)c2ccc(S(=O)(=O)Nc3ccccc3C)cc2)cc1`, the Potency was inconclusive [inhibitor, single point]. In the case of `Cc1cc(C)nc(Nc2nc(-c3ccccc3)cs2)n1`, the Potency is reported as “inactive”. With `CCN(CC)S(=O)(=O)c1cccc(C(=O)/C=C2/N(C)c3ccccc3C2(C)C)c1` the Potency was inconclusive [inhibitor, partial curve, poor fit]. In the case of `CCOCCCN(Cc1ccco1)S(=O)(=O)c1csc(C(N)=O)c1`, the Potency is reported as “inactive”. In the case of `C=CCC1(CC=C)CCCN1C(=O)C1CCC(=O)N(CCc2ccc(OC)cc2)C1` (stereo not given), the Potency is reported as inconclusive [inhibitor, single point]. With `OC(CN1CCN(Cc2ccccc2)CC1)Cn1c2ccccc2c2ccccc21` (stereo not given) the Potency was active: 2.62 µM. For `O=C(C1CCC(Cn2c(=S)[nH]c3ccccc3c2=O)CC1)N1CCOCC1` (stereo not given), the Potency was “inactive”.
